The other results are listed elsewhere or left out. Sequences were assembled here from the parent chain. Inactive controls read about 0.05.
B1: TEV protease; numbered along this chain (parent)
chain: MGESLFKGPRDYNPISSSICHLTNESDGHTTSLYGIGFGPFIITNKHLFRRNNGTLVVQSLHGVFKVKDTTTLQQHLVDGRDMIIIRMPKDFPPFPQKLKFREPQREERICLVTTNFQTKSMSSMVSDTSCTFPSGDGIFWKHWIQTKDGQCGSPLVSTRDGFIVGIHSASNFTNTNNYFTSVPKNFMELLTNQEAQQWVSGWRLNADSVLWGGHKVFMVKPEEPFQPVKEATQL

Variants of: B1
Test: raw area under fraction-flipped curve 0-4 h after induction (AUC4h, not background-subtracted), DNA-recorder readout of cleavage of the substrate (dimensionless); higher = more cleavage of the substrate by the protease variant
Conditions: temperature: 34 °C; time window: 0-4 h after rhamnose induction
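Note: Bxb1 expression induced with 0.2% (w/v) L-rhamnose at OD600 near 0.5, cultures sampled hourly, flipped fraction per protease–substrate barcode pair counted by paired-end Illumina sequencing.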

Row | Variant | area with substrate ENLCFQS | area with substrate ENLFFQS | area with substrate ENLKFQS | area with substrate ENLNFQS | area with substrate ENLPFQS | area with substrate ENLSFQS | area with substrate ENLVFQS | area with substrate ENLDFQS | area with substrate ENLIFQS | area with substrate ENLLFQS | area with substrate ENLQFQS | area with substrate ENLRFQS | area with substrate ENLEFQS | area with substrate ENLHFQS | area with substrate ENLWFQS | area with substrate ENLGFQS | area with substrate ENLTFQS | area with substrate ENLMFQS
1 | T114D | 0.076 | 0.0689 | 0.0663 | 0.0721 | 0.0459 | 0.0412 | 0.0729 | – | – | – | – | – | – | – | – | – | – | –
2 | R50F | 0.0805 | 0.121 | 0.0975 | 0.0716 | 0.0666 | 0.074 | 0.129 | 0.0622 | 0.144 | 0.0858 | 0.0677 | 0.0832 | – | – | – | – | – | –
3 | L77M | 0.0754 | 0.0941 | 0.0648 | 0.0502 | 0.0604 | – | 0.0589 | 0.0609 | 0.0498 | 0.056 | – | – | 0.065 | 0.0608 | 0.0548 | – | – | –
4 | F65Y | 0.0726 | 0.0891 | 0.0768 | 0.072 | 0.073 | 0.0554 | – | 0.0586 | – | – | 0.0977 | 0.0682 | 0.0669 | 0.0803 | 0.0738 | 0.0642 | 0.0567 | –
5 | P222N | 0.0584 | 0.0879 | 0.0768 | 0.0644 | 0.0643 | 0.0569 | – | 0.0656 | 0.0829 | 0.0695 | 0.0688 | 0.0862 | – | 0.0737 | 0.0848 | – | – | –
6 | F41K | 0.0401 | 0.0684 | 0.0491 | 0.0554 | 0.0533 | – | 0.0399 | 0.0279 | – | 0.0502 | 0.0625 | 0.0557 | 0.0539 | 0.0449 | 0.0078 | – | – | 0.0458
7 | R106L | 0.0849 | 0.103 | 0.0816 | 0.0722 | 0.0601 | – | 0.103 | 0.0672 | – | 0.0707 | – | 0.0577 | 0.0627 | 0.0773 | – | – | – | –
8 | F180D | 0.0461 | 0.014 | 0.0723 | 0.0599 | 0.0533 | 0.0863 | – | 0.0561 | – | – | – | 0.0554 | – | 0.0578 | 0.0507 | – | – | 0.065
9 | V57A | 0.0747 | 0.0935 | 0.0786 | 0.0662 | 0.049 | 0.0561 | 0.075 | 0.0594 | – | – | 0.0734 | 0.0671 | 0.0564 | – | 0.0648 | – | – | 0.0723
10 | N178T | 0.0622 | – | 0.0655 | 0.0579 | 0.057 | – | – | – | – | 0.0741 | – | 0.0634 | 0.0668 | 0.0743 | 0.0612 | 0.0584 | – | –
11 | I139L | 0.0654 | 0.086 | 0.0649 | 0.0707 | 0.0707 | 0.0708 | – | 0.0638 | 0.0907 | 0.0825 | 0.0428 | 0.0496 | – | 0.068 | – | 0.0567 | – | –
12 | T147D | 0.0551 | – | – | 0.0684 | – | – | – | 0.0744 | 0.0517 | – | – | – | 0.0813 | – | – | – | – | 0.0763
13 | I85G | 0.0523 | 0.0498 | 0.0567 | 0.0567 | 0.0538 | 0.0583 | – | 0.0553 | 0.0578 | 0.0365 | 0.0459 | 0.0453 | – | 0.0562 | – | – | 0.0509 | –
14 | K68N | 0.0615 | 0.0767 | 0.0943 | 0.0627 | – | – | – | 0.0595 | 0.0779 | – | – | – | – | – | – | 0.0672 | – | –
15 | I167N | 0.048 | 0.0602 | 0.0622 | 0.0653 | 0.0439 | – | – | 0.0614 | – | 0.054 | – | 0.0757 | 0.0536 | – | 0.0579 | – | 0.0874 | 0.0667
16 | H76P | 0.0545 | 0.0588 | 0.0695 | 0.057 | – | 0.0452 | – | – | – | 0.0435 | 0.0499 | 0.0606 | 0.0517 | 0.0596 | 0.057 | – | – | –
17 | T129Y | 0.083 | 0.0472 | 0.0765 | 0.0449 | – | 0.0641 | – | 0.0968 | 0.0951 | 0.0605 | – | 0.0757 | 0.0661 | – | 0.0622 | 0.0606 | – | –
18 | F173R | 0.0292 | – | 0.0627 | – | – | 0.0649 | 0.0588 | 0.0668 | – | – | – | – | – | 0.0645 | 0.0919 | – | – | 0.0707
19 | L190S | 0.0912 | – | 0.0797 | 0.0613 | – | 0.0474 | – | 0.0702 | – | 0.0718 | 0.0662 | – | 0.0552 | 0.0336 | – | – | – | –
20 | Q197E | 0.061 | 0.0696 | 0.0694 | 0.0622 | 0.0647 | 0.0657 | – | 0.063 | – | 0.0572 | 0.0696 | – | 0.0555 | 0.0699 | – | – | – | –
21 | D82I | 0.0558 | – | – | 0.0657 | – | 0.0418 | – | – | – | 0.0496 | – | 0.0493 | – | – | – | – | 0.0633 | 0.0386
22 | K185W | 0.0813 | 0.0763 | 0.0767 | 0.0638 | 0.0656 | 0.0657 | 0.0736 | 0.0781 | 0.1 | – | 0.0817 | – | 0.0905 | 0.0504 | 0.0633 | – | 0.0533 | 0.0808
23 | P134K | 0.0728 | 0.0636 | 0.0844 | 0.057 | 0.0532 | 0.0772 | – | 0.0605 | 0.0634 | 0.0755 | – | 0.0621 | 0.0619 | 0.0494 | – | – | – | 0.0914
24 | Q227N | 0.0501 | 0.077 | 0.0802 | 0.0637 | 0.0635 | 0.0608 | – | 0.0713 | 0.0723 | 0.087 | 0.0628 | 0.067 | – | 0.0865 | 0.0569 | – | – | 0.0774
25 | D137E | 0.102 | 0.0877 | 0.0819 | 0.0674 | 0.0602 | – | 0.0792 | 0.0533 | 0.106 | – | 0.0681 | 0.0712 | 0.0581 | 0.08 | – | – | – | 0.0609
26 | Q194K | 0.0731 | 0.0809 | 0.0828 | 0.0574 | – | 0.0568 | – | 0.0636 | – | – | 0.0653 | 0.0715 | 0.0688 | – | – | – | – | 0.075
27 | S158W | 0.053 | 0.0661 | 0.0419 | 0.0592 | 0.0535 | 0.0462 | – | 0.0646 | 0.0601 | 0.0476 | 0.0396 | 0.043 | 0.0555 | 0.0583 | 0.052 | 0.0514 | – | 0.0359
28 | H62C | 0.0701 | 0.0751 | 0.0829 | 0.0669 | 0.0488 | 0.0586 | 0.0877 | 0.0642 | – | 0.063 | – | 0.0792 | – | 0.0619 | – | – | – | –
29 | T115V | 0.0708 | 0.0879 | 0.11 | 0.0618 | 0.0627 | – | – | 0.0584 | 0.0913 | 0.0681 | – | – | 0.0792 | – | 0.0843 | – | – | 0.0758
30 | T71M | 0.0868 | 0.0654 | 0.0607 | – | 0.104 | – | – | 0.0592 | – | – | 0.0292 | 0.0406 | 0.0746 | – | 0.0694 | – | – | –

Reference: the supplement of paper PMC12217912
